Measurements as given in PMC2654920, “Borrelia recurrentis Employs a Novel Multifunctional Surface Protein with Anti-Complement, Anti-Opsonic and Invasive Potential to Escape Innate Immunity” (PLoS ONE, 2009).
No constants are given. Whether binding was seen depends on the method and setting. Some entries that bind do so weakly or less than the wild type.

Chains of the proteins cited; added tags and fusions are not shown. Residues count along the entry.
UniProt P08603, residues 19-1231: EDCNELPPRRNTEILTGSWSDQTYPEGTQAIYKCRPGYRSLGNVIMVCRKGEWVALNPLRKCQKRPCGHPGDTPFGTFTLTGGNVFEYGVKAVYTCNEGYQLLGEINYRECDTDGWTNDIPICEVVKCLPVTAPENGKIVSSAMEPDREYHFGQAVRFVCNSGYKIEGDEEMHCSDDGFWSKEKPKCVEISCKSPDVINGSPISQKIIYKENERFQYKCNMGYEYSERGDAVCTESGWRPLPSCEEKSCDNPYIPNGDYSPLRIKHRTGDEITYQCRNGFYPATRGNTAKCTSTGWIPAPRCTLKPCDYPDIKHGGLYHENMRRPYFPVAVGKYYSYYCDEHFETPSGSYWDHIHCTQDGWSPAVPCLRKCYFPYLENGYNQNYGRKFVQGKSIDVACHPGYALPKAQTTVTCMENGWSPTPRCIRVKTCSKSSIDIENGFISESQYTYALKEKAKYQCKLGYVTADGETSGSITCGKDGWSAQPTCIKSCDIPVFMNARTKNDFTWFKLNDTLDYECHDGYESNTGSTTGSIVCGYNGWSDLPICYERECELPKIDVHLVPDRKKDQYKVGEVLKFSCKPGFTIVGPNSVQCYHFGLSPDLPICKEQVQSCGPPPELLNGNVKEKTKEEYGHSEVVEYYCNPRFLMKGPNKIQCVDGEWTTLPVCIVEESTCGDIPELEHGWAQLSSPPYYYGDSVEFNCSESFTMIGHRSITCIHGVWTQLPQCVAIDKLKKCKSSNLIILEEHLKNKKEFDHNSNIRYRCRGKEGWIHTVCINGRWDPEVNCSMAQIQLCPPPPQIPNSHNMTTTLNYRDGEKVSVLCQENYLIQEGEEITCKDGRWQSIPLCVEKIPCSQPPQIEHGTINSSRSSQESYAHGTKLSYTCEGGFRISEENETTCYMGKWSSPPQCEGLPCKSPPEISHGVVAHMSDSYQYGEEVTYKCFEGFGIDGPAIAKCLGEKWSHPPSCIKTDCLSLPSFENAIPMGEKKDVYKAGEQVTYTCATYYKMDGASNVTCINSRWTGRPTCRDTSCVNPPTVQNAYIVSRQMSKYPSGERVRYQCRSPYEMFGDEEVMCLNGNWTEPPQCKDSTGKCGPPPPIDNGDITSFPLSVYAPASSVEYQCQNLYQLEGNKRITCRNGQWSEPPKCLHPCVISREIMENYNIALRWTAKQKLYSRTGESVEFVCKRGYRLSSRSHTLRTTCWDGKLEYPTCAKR
UniProt Q03591, residues 19-330: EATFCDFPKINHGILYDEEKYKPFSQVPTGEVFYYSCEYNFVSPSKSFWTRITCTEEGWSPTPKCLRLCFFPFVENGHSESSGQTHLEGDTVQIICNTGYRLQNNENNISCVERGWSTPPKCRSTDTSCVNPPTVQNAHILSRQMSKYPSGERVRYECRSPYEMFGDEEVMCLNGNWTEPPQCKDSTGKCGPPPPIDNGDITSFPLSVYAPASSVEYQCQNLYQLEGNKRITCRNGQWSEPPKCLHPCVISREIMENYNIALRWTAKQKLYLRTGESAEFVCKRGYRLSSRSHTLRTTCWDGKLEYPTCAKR

How the values were obtained:
[1] = molecular target: HcpA deletion mutant, residues 18-145 (B. recurrentis A1) (UniProt C1L349); assay: far-Western, overlay or dot blot; ligand affinity blot: purified recombinant HcpA proteins (200 ng) separated by SDS-PAGE, on nitrocellulose, incubated with normal human serum; goat anti-CFH immune serum or CFHR-1 specific mAb JHD8; only the target purified
[2] = molecular target: HcpA deletion mutant, residues 18-115 (B. recurrentis A1) (UniProt C1L349); assay: as above
[3] = molecular target: HcpA deletion mutant, residues 78-175 (B. recurrentis A1) (UniProt C1L349); assay: as above
[4] = molecular target: HcpA deletion mutant, residues 48-175 (B. recurrentis A1) (UniProt C1L349); assay: as above
[5] = molecular target: HcpA deletion mutant, residues 18-145 (B. recurrentis A1) (UniProt C1L349); assay: ELISA; microtiter plates coated with non-denatured HcpA or deletion mutants (1 µg/ml), incubated with CFH (10 µg/ml) or PLG (20 µg/ml) for 1 h at RT; goat anti-CFH or goat anti-PLG; both purified
[6] = molecular target: HcpA deletion mutant, residues 18-115 (B. recurrentis A1) (UniProt C1L349); assay: as above
[7] = molecular target: HcpA deletion mutant, residues 78-175 (B. recurrentis A1) (UniProt C1L349); assay: as above
[8] = molecular target: HcpA deletion mutant, residues 48-175 (B. recurrentis A1) (UniProt C1L349); assay: as above
[9] = molecular target: T1, recombinant full-length HcpA (residues 18 to 175) of B. recurrentis A1 (B. recurrentis A1) (UniProt C1L349); assay: far-Western, overlay or dot blot; ligand affinity blot: purified recombinant HcpA proteins (200 ng) separated by SDS-PAGE, on nitrocellulose, incubated with normal human serum; goat anti-CFH immune serum or CFHR-1 specific mAb JHD8; only the target purified
T1 sequence: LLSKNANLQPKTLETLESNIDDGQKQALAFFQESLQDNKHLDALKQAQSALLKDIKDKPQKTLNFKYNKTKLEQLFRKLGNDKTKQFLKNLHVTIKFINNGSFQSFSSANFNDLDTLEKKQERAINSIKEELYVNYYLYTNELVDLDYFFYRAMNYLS

[10] = molecular target: T1, recombinant full-length HcpA (residues 18 to 175) of B. recurrentis A1 (B. recurrentis A1); assay: ELISA; microtiter plates coated with non-denatured HcpA or deletion mutants (1 µg/ml), incubated with 50% normal human serum as source for CFHR-1 for 1 h at RT; mAb JHD8; only the target purified
[11] = molecular target: HcpA deletion mutant, residues 18-145 (B. recurrentis A1) (UniProt C1L349); assay: as above
[12] = molecular target: HcpA deletion mutant, residues 18-115 (B. recurrentis A1) (UniProt C1L349); assay: as above
[13] = molecular target: HcpA deletion mutant, residues 78-175 (B. recurrentis A1) (UniProt C1L349); assay: as above
[14] = molecular target: HcpA deletion mutant, residues 48-175 (B. recurrentis A1) (UniProt C1L349); assay: as above

human complement factor H (from UniProt P08603 19-1231)
binding [1]: no binding | binding [2]: no binding | binding [3]: no binding | binding [4]: no binding | binding [5]: no binding (tested: 10 µg/ml CFH) | binding [6]: no binding (tested: 10 µg/ml CFH) | binding [7]: no binding (tested: 10 µg/ml CFH) | binding [8]: no binding (tested: 10 µg/ml CFH)

CFH-related protein 1 of normal human serum (from UniProt Q03591 19-330)
binding [9]: binds | binding [1]: no binding | binding [2]: no binding | binding [3]: no binding | binding [4]: no binding | binding [10]: binds | binding [11]: no binding (tested: 50% normal human serum) | binding [12]: no binding (tested: 50% normal human serum) | binding [13]: no binding (tested: 50% normal human serum) | binding [14]: no binding (tested: 50% normal human serum)
